Measurements: the RNAGym collection of RNA variant scans (doi:10.7554/elife.90254)
Read counts are not given, so values of variants with three or more changes are uncertain.

B1: LINE1-mini (parent)
chain: GGCAGAGCUCAACACAGCGUGGCAAAGUGGCUGUGGCUAGACUGCC

Variants of: B1
Test: self-cleavage, relative activity (ratio to wild type); higher = more cleavage; in vitro, sequencing; the parent is a self-cleaving ribozyme
In the case of G1U A25U G35C C46A, the self-cleavage is reported as 0.01. A4U U9C A41G G44A showed a self-cleavage of 0.03. G5C A12U C31G C37U G40A gave a self-cleavage of 0.03. In the case of C8A G19A A26C G30U, the self-cleavage is reported as 0.1. Work on C8G U38C A39U C45G yielded a self-cleavage of 0.03. Variant U32A G36U C42A has a self-cleavage of 0.2. C3A C8A C45G showed a self-cleavage of 0.14. Variant A11U U20G C37G G44A C45G has a self-cleavage of 0.03. With G19U G29C C45U C46G the self-cleavage was 1.24. A16G G17C A24G C31A showed a self-cleavage of 0.26. C8G G36A C46U gave a self-cleavage of 0.05. Variant G1U U9A C18G G36U A39G has a self-cleavage of 0. Variant G7U A12U U20G U34C has a self-cleavage of 0.05. For C18U G33C G44C C45G, the self-cleavage was 0.02. With G2C A14C U28A the self-cleavage was 0.12. Work on A16U U34C A39G C46A yielded a self-cleavage of 0.09. In the case of U20A G36C G44U, the self-cleavage is reported as 0.05. Variant G1A G7C C45G has a self-cleavage of 0.1. C8A C10A A14C G19A C31A showed a self-cleavage of 0.02. Variant A4G A24U U34C has a self-cleavage of 0.12. A4U A14G U34G G36A showed a self-cleavage of 0.01. Work on U9G A26G U43C G44C yielded a self-cleavage of 0.02. For G1C A4U U9A A12U G21U G33U, the self-cleavage was 0.01. With A26U U34G A39G the self-cleavage was 0.03. With G22A G44U C45G the self-cleavage was 0.08. For A4G U9G G19C G22A G35U A41U, the self-cleavage was 0.01. C10A A24C C42U showed a self-cleavage of 0.04. Work on A14U A26C G27U G33C G40A C42G yielded a self-cleavage of 0.02. G1A C3G G5C G22U C23A U32G U38C showed a self-cleavage of 0.12. Variant G22A G29C C37G has a self-cleavage of 0. With A12C G22U C45G the self-cleavage was 0.04. For A6G U20G G36U C42A, the self-cleavage was 0. A16U G22U C46U showed a self-cleavage of 0.08. G5A C10A A25G A26C C37G showed a self-cleavage of 0.01. For A6U G21U C23A G35U G36U, the self-cleavage was 0.18. Variant G2A A6C G19A U38G has a self-cleavage of 0.06. In the case of C3U G5U C18U U32G C42A, the self-cleavage is reported as 0.05. C13A C42A G44C gave a self-cleavage of 0.09. Work on G7A C18A G21U A41G yielded a self-cleavage of 0.1. A11G C13G G33A C45U gave a self-cleavage of 0.03. Variant C10G G19C G35A C42G has a self-cleavage of 0.01. For C18G G22A U38A C42U C46G, the self-cleavage was 0.04. Variant U28A G29C U43G has a self-cleavage of 0.01. Variant G7U G29U G44C has a self-cleavage of 0.02. In the case of G1U A25U C31A, the self-cleavage is reported as 0.04. C13U A25U U34G gave a self-cleavage of 0.02. G1C C15A G30C C42U gave a self-cleavage of 0. Work on A24U G29U G36C C37G yielded a self-cleavage of 0.04. Work on C13G A16G G27C U28A yielded a self-cleavage of 0.02. Work on A12C C18U G29U G44U yielded a self-cleavage of 0.01. Work on G2C A24C C31G U32C yielded a self-cleavage of 0.01. Variant G2C U9C C10U G17C C23U A24C G44A has a self-cleavage of 0.01. Work on C15A A25U U32C yielded a self-cleavage of 0.05. U9G C10A C15U G21U C45G gave a self-cleavage of 0.01. For U9A G21A G27A C42U, the self-cleavage was 0.21. G17A G19C G30U C31U showed a self-cleavage of 0.2. G21A G22C G36A showed a self-cleavage of 0.03. With A4G G5U A6G A14U the self-cleavage was 0.1. Work on A25U G30U G33U C37U yielded a self-cleavage of 0.19. In the case of A6G C8A G17U U38G C42U, the self-cleavage is reported as 0.11. In the case of G2C G33A U38A, the self-cleavage is reported as 0.02. With A16U A39C C42G the self-cleavage was 0.01. For G5U G21U A39U, the self-cleavage was 0.06. With C10U A41C C45A the self-cleavage was 0.04. In the case of G7A A12C C18U, the self-cleavage is reported as 0.05. U9C G22U G36U showed a self-cleavage of 0.05. Work on G1A G17A G27C yielded a self-cleavage of 0.04. With G22C G27C G33C the self-cleavage was 0.03. Variant G1U C31A C37U C45U has a self-cleavage of 0.03. For C3A C18U A25U A39U C42G, the self-cleavage was 0.06. Variant G1U C13U C31A C42U has a self-cleavage of 0.11. Variant C8U C23U C37G has a self-cleavage of 0.02. For A4U C8A G29C, the self-cleavage was 0.08. G5C A26U G27A C42G showed a self-cleavage of 0.02. A4U C31G C45U gave a self-cleavage of 0.03. For C13U G22A A24U, the self-cleavage was 0.14. In the case of C10A G19U G21U G30U G33U, the self-cleavage is reported as 0. Work on G22U G35U G36U U43A yielded a self-cleavage of 0.03. With C13G A14C A25U U34C G44C the self-cleavage was 0.01. In the case of G5A G30A G44U C45U, the self-cleavage is reported as 0.07. C3A G5U A12G C18U A24U C31U showed a self-cleavage of 0.04. Work on U20A U28A C42A U43G yielded a self-cleavage of 0.06. Work on G2C C10G G22U yielded a self-cleavage of 0.02. With A24U U28G G40A the self-cleavage was 0.05. C10A A24C U38A A39G showed a self-cleavage of 0.02. C13A G22C A26U U32C U34C gave a self-cleavage of 0.02. For G1C A11G U38A, the self-cleavage was 0. Variant A25U U34A G44A C46G has a self-cleavage of 0. For G7U G19C G27C, the self-cleavage was 0.05. Variant C15A A26U A39U A41C has a self-cleavage of 0.06. C8A A11C A12U gave a self-cleavage of 0.03. With G19U G29U G44U the self-cleavage was 0.18. G1U C31A G36C U38A showed a self-cleavage of 0.01. For G19A G21U G33C, the self-cleavage was 0.06. A4U C13A G27C G44A C46G gave a self-cleavage of 0.07. C3U G5U C13A C18U showed a self-cleavage of 0.06. Variant C10A C13A A14U has a self-cleavage of 0.01. G5A U9A C46A gave a self-cleavage of 0.39. Work on C15G G22A G40C yielded a self-cleavage of 0.03. A6G G21C A41G showed a self-cleavage of 0.13. Work on U9C A16U U38C A39U A41C yielded a self-cleavage of 0.01. Variant G7C A41C U43C has a self-cleavage of 0.07. With A6U C15G G29C U38A the self-cleavage was 0.18. With A11G A12U G17U G29U the self-cleavage was 0. With C10U C15U U20A G21U G33A C45G the self-cleavage was 0.04. With A24C G33U G36A the self-cleavage was 0.03. In the case of C3A G17C G33C, the self-cleavage is reported as 0.08. Work on G2C G22A A41U yielded a self-cleavage of 0.09. Work on U9G C10U C15G C31A C37A yielded a self-cleavage of 0. With G5U U20C U32C the self-cleavage was 0.05. G7C U9A U34G G44A gave a self-cleavage of 0.01. For A6G A12U G22U C31A U32A, the self-cleavage was 0.02. For G5U A11U C46A, the self-cleavage was 0.01. For C15U A26C G27A C31U U32G U43C C45A, the self-cleavage was 0.05. Work on G7A U9A C23A U43C yielded a self-cleavage of 0.11. A12U G21C A41G showed a self-cleavage of 0.06. With C3A A6G G44U the self-cleavage was 0.11. C3U A4U G27A C42A gave a self-cleavage of 0.05. Work on G33U G36U U43A yielded a self-cleavage of 0.01. In the case of G29U G33U C37A C46A, the self-cleavage is reported as 0.05. C10G G35C C42U showed a self-cleavage of 0.01. U9A G21C G27A showed a self-cleavage of 0.05. With C8G C18U U28A U43C the self-cleavage was 0. C3U C15A C18A G29A C45U showed a self-cleavage of 0.15. For G1U C13A C15A, the self-cleavage was 0.03. Work on C10G C13G C31U G33U yielded a self-cleavage of 0.01. Variant C10A C13G A39C has a self-cleavage of 0. For G7A U32A G35U A41C, the self-cleavage was 0.07. C8U A11U G17C G40A showed a self-cleavage of 0. With G7C A16C U32G G33U A39C the self-cleavage was 0.01. Variant G7U U34A G35U C42G has a self-cleavage of 0.03. A6U A11U C15U G40C showed a self-cleavage of 0.01. A12C C13U C15G showed a self-cleavage of 0.01. G2U U20C C37U showed a self-cleavage of 0.02. G22A G29U C37A showed a self-cleavage of 0.06. In the case of A25C G27A C31U G33C C46A, the self-cleavage is reported as 0.05. For A16C A26U G29C C46U, the self-cleavage was 0.63. A16U A25U G27A gave a self-cleavage of 0.94. In the case of C8U U9G A12C, the self-cleavage is reported as 0.04. G30C A39U A41U C42U gave a self-cleavage of 0.04. In the case of G27A C31U G44A, the self-cleavage is reported as 0.28. For A12C U32G G40U C42U C45U, the self-cleavage was 0. Variant C13A G33A G44A has a self-cleavage of 0.07. Variant U9G C15U A26G U38A has a self-cleavage of 0.14. A4U C15G G17A G44A gave a self-cleavage of 0.02. Variant A11U C15A C31U has a self-cleavage of 0.03. In the case of C10G C23A A39G C46U, the self-cleavage is reported as 0.03. A14C G17A G22A C37G gave a self-cleavage of 0. Variant C23G A24C C31U has a self-cleavage of 0.08. G21U G22A G30U gave a self-cleavage of 1.66. Work on C3U U9C A16U G33A A41G C45G yielded a self-cleavage of 0.01. Work on C10U A25U G30C yielded a self-cleavage of 0.13. With C15G G21A U34C C45G the self-cleavage was 0.02. With A14U U32C G40C the self-cleavage was 0.03. A25C G36A A39C showed a self-cleavage of 0.12. Variant G1C A16U A26C C37A has a self-cleavage of 0.14. G5U A11U G27C showed a self-cleavage of 0.02. Variant G22U C23A G35A C42U has a self-cleavage of 0.24. In the case of A11G A25C C31G G33A C45U, the self-cleavage is reported as 0. Work on A11U C23A A26C yielded a self-cleavage of 0.18. Work on C18G G21C G27C U34A yielded a self-cleavage of 0.02. For A16C G21C U43C, the self-cleavage was 0.01. C8A G21U G29A C46A gave a self-cleavage of 0.11. Variant G2U A4G A39G has a self-cleavage of 0.02. For G17A G35A U38A C45U, the self-cleavage was 0.02. For C8A A16U U28C G29C A41C, the self-cleavage was 0.04. For U9G A12U C13G A24G A39U G44A, the self-cleavage was 0.05.
